# The supplement of paper PMC12217912
# The other results are listed elsewhere or left out. Sequences were assembled here from the parent chain. Inactive controls read about 0.05.
# B1: TEV protease; numbered along this chain (parent)
# chain: MGESLFKGPRDYNPISSSICHLTNESDGHTTSLYGIGFGPFIITNKHLFRRNNGTLVVQSLHGVFKVKDTTTLQQHLVDGRDMIIIRMPKDFPPFPQKLKFREPQREERICLVTTNFQTKSMSSMVSDTSCTFPSGDGIFWKHWIQTKDGQCGSPLVSTRDGFIVGIHSASNFTNTNNYFTSVPKNFMELLTNQEAQQWVSGWRLNADSVLWGGHKVFMVKPEEPFQPVKEATQL
# Variants of: B1
# Test: raw area under fraction-flipped curve 0-4 h after induction (AUC4h, not background-subtracted), DNA-recorder readout of cleavage of the substrate (dimensionless); higher = more cleavage of the substrate by the protease variant
# Conditions: temperature: 34 °C; time window: 0-4 h after rhamnose induction
# Experimental: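 In vivo DNA recorder in E. coli TOP10(DE3) ΔrhaA at 34 °C. Each TEVp single-site mutant (parent TEVp 0) is paired with a single-site variant of the 7-mer TEVs (canonical ENLYFQ|S). The substrate sits between flexible linkers in a Bxb1-sfGFP-TEVs-SsrA fusion, so cleavage stabilises Bxb1 and speeds flipping of a recombination array, read by NGS. The value is the raw area under the fraction-flipped curve over 0-4 h after rhamnose induction (AUC4h), with ≥20 reads per time point. It is not background-subtracted; inactive controls average about 0.047.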
# 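Further: Bxb1 expression induced with 0.2% (w/v) L-rhamnose at OD600 near 0.5, cultures sampled hourly, flipped fraction per protease–substrate barcode pair counted by paired-end Illumina sequencing.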
Variant,area with substrate ENLDFQS,area with substrate ENLEFQS,area with substrate ENLFFQS,area with substrate ENLHFQS,area with substrate ENLIFQS,area with substrate ENLLFQS,area with substrate ENLVFQS,area with substrate ENLKFQS,area with substrate ENLNFQS,area with substrate ENLPFQS,area with substrate ENLRFQS,area with substrate ENLSFQS,area with substrate ENLWFQS,area with substrate ENLMFQS,area with substrate ENLQFQS,area with substrate ENLCFQS
MGESWFKGPRDYNPISSSICHLTNESDGHTTSLYGIGFGPFIITNKHLFRRNNGTLVVQSLHGVFKVKDTTTLQQHLVDGRDMIIIRMPKDFPPFPQKLKFREPQREERICLVTTNFQTKSMSSMVSDTSCTFPSGDGIFWKHWIQTKDGQCGSPLVSTRDGFIVGIHSASNFTNTNNYFTSVPKNFMELLTNQEAQQWVSGWRLNADSVLWGGHKVFMVKPEEPFQPVKEATQL [L5W],0.0639,0.0547,0.0901,0.0661,0.0971,0.0926,0.108,,,,,,,,,
MGESKFKGPRDYNPISSSICHLTNESDGHTTSLYGIGFGPFIITNKHLFRRNNGTLVVQSLHGVFKVKDTTTLQQHLVDGRDMIIIRMPKDFPPFPQKLKFREPQREERICLVTTNFQTKSMSSMVSDTSCTFPSGDGIFWKHWIQTKDGQCGSPLVSTRDGFIVGIHSASNFTNTNNYFTSVPKNFMELLTNQEAQQWVSGWRLNADSVLWGGHKVFMVKPEEPFQPVKEATQL [L5K],0.0634,,0.0975,0.0663,,0.0644,,0.0767,0.0747,0.0404,0.0786,0.0532,0.0441,,,
MGLSLFKGPRDYNPISSSICHLTNESDGHTTSLYGIGFGPFIITNKHLFRRNNGTLVVQSLHGVFKVKDTTTLQQHLVDGRDMIIIRMPKDFPPFPQKLKFREPQREERICLVTTNFQTKSMSSMVSDTSCTFPSGDGIFWKHWIQTKDGQCGSPLVSTRDGFIVGIHSASNFTNTNNYFTSVPKNFMELLTNQEAQQWVSGWRLNADSVLWGGHKVFMVKPEEPFQPVKEATQL [E3L],0.0576,0.0519,0.0742,0.0587,0.0756,,0.0648,,0.0638,0.0591,,0.0631,0.0643,,,
MGESLFKGPYDYNPISSSICHLTNESDGHTTSLYGIGFGPFIITNKHLFRRNNGTLVVQSLHGVFKVKDTTTLQQHLVDGRDMIIIRMPKDFPPFPQKLKFREPQREERICLVTTNFQTKSMSSMVSDTSCTFPSGDGIFWKHWIQTKDGQCGSPLVSTRDGFIVGIHSASNFTNTNNYFTSVPKNFMELLTNQEAQQWVSGWRLNADSVLWGGHKVFMVKPEEPFQPVKEATQL [R10Y],0.055,0.0513,0.0776,,,0.0616,0.0759,0.0777,0.0716,0.0686,0.0651,0.0564,0.058,0.0698,0.0842,
MGESLFKGPRDYNPISSSICHQTNESDGHTTSLYGIGFGPFIITNKHLFRRNNGTLVVQSLHGVFKVKDTTTLQQHLVDGRDMIIIRMPKDFPPFPQKLKFREPQREERICLVTTNFQTKSMSSMVSDTSCTFPSGDGIFWKHWIQTKDGQCGSPLVSTRDGFIVGIHSASNFTNTNNYFTSVPKNFMELLTNQEAQQWVSGWRLNADSVLWGGHKVFMVKPEEPFQPVKEATQL [L22Q],0.0597,,0.0481,0.0607,0.0463,0.0377,0.0444,0.048,0.0545,0.045,0.0462,0.0462,0.0419,,0.03,
MGESLFKGPRDYNPISSSICHLTNESDGHTTSLYGIGFGPFIITNKHLFRRLNGTLVVQSLHGVFKVKDTTTLQQHLVDGRDMIIIRMPKDFPPFPQKLKFREPQREERICLVTTNFQTKSMSSMVSDTSCTFPSGDGIFWKHWIQTKDGQCGSPLVSTRDGFIVGIHSASNFTNTNNYFTSVPKNFMELLTNQEAQQWVSGWRLNADSVLWGGHKVFMVKPEEPFQPVKEATQL [N52L],0.0599,0.0662,,0.0656,0.0297,0.0513,0.0662,0.0707,0.0613,0.0603,0.0583,0.0524,0.0543,0.0535,0.0514,
MGESLFKGPRDYNPISSSICHLTNESDGHTTSLYGIGFGPFIITNKHLFRRNNGTLVVDSLHGVFKVKDTTTLQQHLVDGRDMIIIRMPKDFPPFPQKLKFREPQREERICLVTTNFQTKSMSSMVSDTSCTFPSGDGIFWKHWIQTKDGQCGSPLVSTRDGFIVGIHSASNFTNTNNYFTSVPKNFMELLTNQEAQQWVSGWRLNADSVLWGGHKVFMVKPEEPFQPVKEATQL [Q59D],0.0476,,0.11,,0.0837,,,,0.0639,0.0476,,0.0503,,0.0625,,
MGESLFKGPRDYNPISSSICHLTNESDGHTTSLYGIGFGPFIITNKHLFRRNNGTLVVLSLHGVFKVKDTTTLQQHLVDGRDMIIIRMPKDFPPFPQKLKFREPQREERICLVTTNFQTKSMSSMVSDTSCTFPSGDGIFWKHWIQTKDGQCGSPLVSTRDGFIVGIHSASNFTNTNNYFTSVPKNFMELLTNQEAQQWVSGWRLNADSVLWGGHKVFMVKPEEPFQPVKEATQL [Q59L],0.056,,0.0852,,,,0.0823,0.0932,,,0.0889,0.0565,,,,
MGESLFKGPRDYNPISSSICHLTNESDGHTTSLYGIGFGPFIITNKHLFRRNNGTLVVQSLHGVFKVKDTTTLQQHLVDGRDMIIIRMPKDFPPFPQKLKFREPQREERICLVTTNFQTKSMSSMVSDTSCTFPSGDGIFWKHWIQTKDGQCGSPLVSTRDGFIVGIHSASNFTNTNNYFTSVPKNFMELLTNQEAQQWVSGWRLNADSVLWGGHKVFMVKPEEPFQPVKFATQL [E231F],0.0805,,,0.0782,,0.0851,0.0763,0.0703,,,,0.0504,,,0.0646,0.0607
